# Out of some 370,000 compounds screened, about 150 (0.041%) were called active. Inconclusive results, whose numbers are uncertain, are shown with a selection of clear calls. Calls come from the whole dose curve; as a rule, active = well fitted inhibition curve with a large enough effect; inconclusive = small, poorly fitted or top-dose-only effect; inactive = flat fitted curve, though single readings scatter. No potency is given beside an inconclusive call; the fits are too rough.
# Target: Beta-lactamase (Escherichia coli (strain K12)) (UniProt P00811)
# Assay: qHTS Inhibitors of AmpC Beta-Lactamase (assay with detergent); note: nearly all actives have a fitted effect of over 25% in size;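 for activity change, negative = inhibition: 0% = no-compound wells and -100% = no-enzyme wells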
# Conditions: AmpC hydrolysis of nitrocefin, absorbance 480 nm, 0.01% Triton; activity change, negative = inhibition: at 114 µM (top of the series)
# In short: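 20 mM phosphate pH 7.0 + 0.01% (detergent screen) or 0.0001% Triton X-100; 5.3 nM AmpC reagent; cpd preinc 15 min RT; nitrocefin (800 uM stock) to start; A480 q20 s × 4 min; Activity was normalised to no-enzyme and no-compound control wells.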
# Potency is the fitted concentration of half-maximal effect; tags give direction and shape of the fitted curve.
# UniProt P00811, sequence (P00811 whole entry, looked up): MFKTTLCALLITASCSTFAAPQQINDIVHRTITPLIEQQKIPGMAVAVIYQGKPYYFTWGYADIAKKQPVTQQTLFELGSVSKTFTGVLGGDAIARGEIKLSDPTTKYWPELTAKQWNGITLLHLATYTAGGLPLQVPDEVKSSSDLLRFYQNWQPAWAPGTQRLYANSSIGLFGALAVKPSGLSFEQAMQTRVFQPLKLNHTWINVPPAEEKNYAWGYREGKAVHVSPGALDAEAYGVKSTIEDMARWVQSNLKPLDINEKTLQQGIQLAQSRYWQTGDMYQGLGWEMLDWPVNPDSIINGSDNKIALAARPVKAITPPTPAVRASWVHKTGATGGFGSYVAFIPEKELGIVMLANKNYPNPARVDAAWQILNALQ
SMILES,Potency,"activity change, negative = inhibition"
Cc1ccsc1C(=O)NCc1ccccc1Cl,"inconclusive [inhibitor, single point]",
COc1ccc(CCNC(=O)COC(=O)c2ccc(C)s2)cc1,,inactive: -7.11%
Cc1cc(-c2ccc(C(C)C)c(S(=O)(=O)Nc3cc(C)on3)c2)on1,,inactive: -6.52%
Clc1ccc(CCNCc2ccncc2)c(Cl)c1,"inconclusive [inhibitor, full curve, poor fit]",
O=C(c1ccc(=O)[nH]n1)N1CCN(S(=O)(=O)c2cccc(F)c2)CC1,"inconclusive [inhibitor, full curve, poor fit]",
CCn1c(C)nnc1SCC(=O)Nc1nccs1,,inactive: -8.57%
CCOc1ccc(C(=O)c2nc3c(n2O)CCCC3)cc1,"inconclusive [inhibitor, partial curve]",
Cc1ccccc1CS(=O)(=O)Cc1ccc(C(=O)NC2CCCCC2)o1,,inactive: 3.23%
CN(C)C1=NCCN1CCCC1CCCC1,"inconclusive [inhibitor, single point]",
Cc1noc(-c2ccc(N(C)Cc3ccccc3)c([N+](=O)[O-])c2)n1,,inactive: -3.97%
CCN(CC)c1ccc2cc(-c3nnc(-c4ccccc4)o3)c(=O)oc2c1,"inconclusive [inhibitor, single point]",
CCn1cc(/C=N/N=C2\CCC3C4CCc5cc(O)ccc5C4CC[C@]23C)c(C)n1 (stereo partly specified),"inconclusive [inhibitor, single point]",
C#CCOC(=O)c1ccccc1C(=O)N(CC)CC,"inconclusive [inhibitor, full curve, poor fit]",
O=C(O)C1CCCCN1C(=O)c1ccc(S(=O)(=O)N2CCCC2)cc1 (stereo unspecified),"inconclusive [inhibitor, partial curve, poor fit]",
Cc1ccccc1N1C(=O)CC(=O)N(c2ccccc2C)C1=O,"inconclusive [inhibitor, partial curve]",
Clc1ccc(OCCCN2CCCCC2)c(Br)c1,,inactive: -11.6%
O=C(CCS(=O)(=O)c1ccc2c(c1)NC(=O)CS2)NCCc1ccc(Cl)cc1,,inactive: -11%
CC(=O)Nc1ccc(S(=O)(=O)NCc2nnnn2-c2ccc(Cl)cc2)cc1,"inconclusive [inhibitor, full curve]",
COC(=O)c1ccc(C(=O)OC)c(NC(=O)CSc2cccc[n+]2[O-])c1,,inactive: 1.74%
Cn1c(=O)c2c(nc(NCCCN3CCOCC3)n2Cc2ccc(Cl)cc2Cl)n(C)c1=O,"inconclusive [inhibitor, partial curve]",
Cc1ccc(NC(=O)CNC(=O)c2ccc(C)s2)nc1,"inconclusive [inhibitor, full curve, poor fit]",

# — PubChem BioAssay AID485294 (National Center for Advancing Translational Sciences (NCATS), 2010)
